Hit rate of the full screen: of about 310,000 compounds, about 14,000 (4.5%) showed an effect of 50% or more. Effects have a minus sign here. This is one part of the list.
Target: human ether-à-go-go-related gene (hERG) potassium channel (human, UniProt Q12809)
Experiment: primary screen, population patch clamp on CHO cells stably expressing hERG
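Note: peak tail current of the secondary pulse compared with the same well before compound.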

Sequence of human ether-à-go-go-related gene (hERG) potassium channel (Q12809 whole entry, looked up): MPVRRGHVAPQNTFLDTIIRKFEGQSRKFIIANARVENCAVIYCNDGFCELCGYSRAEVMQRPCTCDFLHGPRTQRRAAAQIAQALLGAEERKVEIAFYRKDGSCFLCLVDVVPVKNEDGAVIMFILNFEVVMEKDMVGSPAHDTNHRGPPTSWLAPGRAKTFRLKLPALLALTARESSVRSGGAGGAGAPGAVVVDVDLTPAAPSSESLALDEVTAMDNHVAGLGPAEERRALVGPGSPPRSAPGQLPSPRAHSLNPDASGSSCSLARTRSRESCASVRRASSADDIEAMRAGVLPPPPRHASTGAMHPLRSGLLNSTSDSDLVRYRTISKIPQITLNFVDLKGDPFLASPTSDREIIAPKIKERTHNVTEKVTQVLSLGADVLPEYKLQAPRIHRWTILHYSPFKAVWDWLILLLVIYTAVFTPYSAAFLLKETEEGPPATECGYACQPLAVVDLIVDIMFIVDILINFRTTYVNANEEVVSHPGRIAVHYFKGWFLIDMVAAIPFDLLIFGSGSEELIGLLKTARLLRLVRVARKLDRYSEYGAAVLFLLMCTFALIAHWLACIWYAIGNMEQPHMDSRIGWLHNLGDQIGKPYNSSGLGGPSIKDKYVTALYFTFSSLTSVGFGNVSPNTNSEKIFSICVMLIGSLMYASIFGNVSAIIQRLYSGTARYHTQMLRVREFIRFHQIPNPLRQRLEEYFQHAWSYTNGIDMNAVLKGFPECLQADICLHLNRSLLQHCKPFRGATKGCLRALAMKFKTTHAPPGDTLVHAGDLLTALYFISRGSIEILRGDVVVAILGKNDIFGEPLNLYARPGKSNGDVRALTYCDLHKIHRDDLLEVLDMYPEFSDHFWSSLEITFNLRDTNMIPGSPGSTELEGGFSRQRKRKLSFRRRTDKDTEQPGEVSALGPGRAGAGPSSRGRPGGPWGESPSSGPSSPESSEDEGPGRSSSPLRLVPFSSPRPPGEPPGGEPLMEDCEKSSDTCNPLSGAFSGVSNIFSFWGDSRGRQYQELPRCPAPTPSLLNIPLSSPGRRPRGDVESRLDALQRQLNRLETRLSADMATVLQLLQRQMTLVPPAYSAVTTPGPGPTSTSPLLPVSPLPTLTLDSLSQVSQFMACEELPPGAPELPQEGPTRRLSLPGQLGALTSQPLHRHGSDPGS

SMILES | hERG current change (%, negative = inhibition) at 10uM [%]
CCOc1ccc(CN2CCN(c3ncnc4scc(-c5ccccc5)c34)CC2)cc1 | -75.3
Cc1ccc(C)c(-n2cc(CNCCc3cnccn3)c(-c3ccccc3)n2)c1 | -67.1
CCO[C@H]1OC(C(=O)NCc2nc3ccccc3[nH]2)=C[C@@H](C2CCCCC2)[C@@H]1CCCO | -4.56
Nc1nc(SCCOc2ccccc2)n[nH]1 | 4.5
Cc1[nH]c(=O)[nH]c(=O)c1NC(=O)c1ccc(OC(C)C)cc1 | 8.07
CC(=O)Nc1ccc(OCC(=O)NCc2ccc3c(c2)OCO3)cc1 | -3.38
CCOc1cc(/C=C2\C(=N)N3N=C(C)SC3=NC2=O)ccc1OCCOc1ccccc1 | 4.62
COC(=O)C1=C(c2ccccc2OCc2ccccc2)C[C@@H]2CC[C@H]1N2C(=O)NCCN1CCOCC1 | 1.62
Cn1c2ccccc2n2c(=O)c(=O)n(CC(=O)N3CCCc4ccccc43)nc12 | -15.8
COc1ccc(C(=O)/C=C/Nc2ccc([N+](=O)[O-])cc2)cc1 | 2.29
CC(C)c1ccc2c(c1)C(c1ccc(N3CCOCC3)cc1)=NNC(c1cccs1)=N2 | -4.89
COc1c(C)cc(C(=O)C2CCCN(S(=O)(=O)N(C)C)C2)cc1C (stereo not drawn) | -66.5
COc1cccc(N2CCN(C(=O)c3cccc(NC4=NC5CS(=O)(=O)CC5S4)c3)CC2)c1 (stereo not drawn) | 10.2
O=C(COc1ccc(Br)cc1F)N1CCN(c2ncccn2)CC1 | -33.8
Oc1ccc(Br)cc1CN1CCCCCCC1 | -47.6
Nc1nc(SCc2ccc(Cl)cc2)[nH]c(=O)c1-c1ccccc1 | -1.24
O=C(COc1cc(F)ccc1[N+](=O)[O-])Nc1ccc2c(c1)OCO2 | 1.25
O=c1c2ccc(Cl)cc2nc2n1CC/C2=C\c1cccc(O)c1 | 13.8
C=CCn1c(SCC(=O)Nc2nc(C)cs2)nnc1C(C)NC(=O)c1ccccc1Cl (stereo not drawn) | -13.6
Cc1ccc(C)c(S(=O)(=O)N2CCCC2CNC(=O)C(=O)NCCN2CCOCC2)c1 (stereo not drawn) | 3.93
COc1cccc(OC)c1OCCN(C)C.O=C(O)C(=O)O | 1.44
Cc1nc(N2CCOCC2)c2c(C)c(C(=O)Nc3ccc(F)cc3F)sc2n1 | -10.3

SMILES | hERG current change (%, negative = inhibition) at 10uM [%]
COC(=O)c1nn(-c2cccc(Cl)c2)cc(OC)c1=O | 10.4
O=C(CN1C(=O)C2C3C=CC(C3)C2C1=O)NCCc1ccccc1Cl (stereo not drawn) | 10.6
CCOc1ccccc1CNS(=O)(=O)c1cc(-c2cc(C)no2)ccc1OC | -18.4
COc1ccc(N2CCN(C(=O)c3cccc(NC4=NC5CS(=O)(=O)CC5S4)c3)CC2)cc1 (stereo not drawn) | 19
CC(=O)O.COc1cc2c(C#N)c(N3CCCC3)nc(N)c2c(N)n1 | -10.2
CCN(CC1CCCO1)C(=O)c1cc(COc2ccccc2SC)on1 (stereo not drawn) | -85.6
O=C(COc1ccccc1Cl)N1CCCC(N2CCN(c3ccc(F)cc3)CC2)C1 (stereo not drawn) | -65.8
O=C(N/N=C/c1ccc(OC(=O)c2ccccc2)c([N+](=O)[O-])c1)c1ccc(O)cc1 | 16.4
Cc1ccc(-n2c(=S)[nH]c3sc4c(c3c2=O)CCC4)cc1 | 26.6
CCCCn1c(N)c(N(CCOC)C(=O)c2ccc(-c3ccc(C(C)=O)cc3)o2)c(=O)[nH]c1=O | 1.35
C=CCN(C(=O)C1=NN(C2CCS(=O)(=O)C2)C(=O)CC1)c1nc(-c2ccc([N+](=O)[O-])cc2)cs1 (stereo not drawn) | -63.5
COc1ccc(CC(=O)OCC(=O)Nc2ccc3[nH]c(=O)[nH]c3c2)cc1 | 7.97
CC1CCN(C(=O)c2ccc3c(c2)NC(=O)/C(=C/c2ccccc2)S3)CC1 | 11
Cc1ccccc1/C=C1\Sc2ccc(C(=O)N3CCN(c4ccccn4)CC3)cc2N(C)C1=O | -26.1
CCc1nc2ccccc2n1CC(C)C(=O)O.Cl (stereo not drawn) | 7.67
Cc1ccc(NC(=O)COc2cccnc2[N+](=O)[O-])cc1S(=O)(=O)N1CCOCC1 | -21.1
COc1ccc(/C=N/NC(=S)NCc2ccccc2)cc1OC | 0.0154
Cc1cc(C)nc(NC(=O)Cc2ccc(Cl)cc2)c1 | -5.94
CC(C)(C)C1CCC2(CC1)C(C#N)=C(SCC(=O)NC1CCCCC1)NC(=O)C2C#N (stereo not drawn) | -6.68
Cc1cc(C)cc(NC(=S)N2CCN(CCO)CC2)c1 | 14.3
Cc1cc(-c2ccc(C)c(S(=O)(=O)NCCN3CCC(C)CC3)c2)on1 | -12.8
CC(=O)Nc1ccc(NC(=O)CSc2ccc3nnc(CCNS(=O)(=O)c4ccc(C)cc4)n3n2)cc1 | -43.1

SMILES | hERG current change (%, negative = inhibition) at 10uM [%]
Cc1cc(C)c(OCCCNC2CCCC2)c(Br)c1.O=C(O)C(=O)O | -34.5
COc1ccc2oc(=N)c(C(=O)NCc3ccccc3)cc2c1 | 6.24
Cc1ccc(CNC(=O)CS(=O)(=O)CC(=O)O)cc1 | 18.3
CC(=O)Nc1cc(C(=O)N2CCCC2)ccc1S(=O)(=O)c1ccc(Cl)cc1 | 4.95
CCCS(=O)(=O)N1CCN(C(=O)COc2ccc(OC)cc2)CC1.O=C(O)C(=O)O | 3.39
O=C(NNC(=O)c1oc2ccccc2c1-n1cccc1)c1ccco1 | 11.2
COc1ccccc1NC(=S)NCc1cccs1 | -5.91
NC(=S)N=Nc1c(O)[nH]c2ccc(F)cc12 | 12.8
COc1ccc(C=O)cc1O | 1.96
CCOc1ccc(NC(=O)c2ccc(N3CC4CC(C3)c3cccc(=O)n3C4)c(N)c2)cc1 (stereo not drawn) | -21.7
CCC(CC)NC(=O)c1cc([N+](=O)[O-])ccc1N1CCOCC1 | 6.79
Cc1ccc(C2=NN(CCC(=O)N3CCC4(CC3)OCCO4)C(=O)CC2)cc1 | -57.5
Cc1ccc(OCc2ccoc2C(=O)O)cc1C | 16.6
S=C1SCN(CCN2CCOCC2)CN1Cc1ccccc1 | 13.9
CCCc1nc(N2CCN(S(=O)(=O)c3ccc(Cl)cc3)CC2)c2c(C)c(C)sc2n1 | -17.1
CCN(CC)CCSc1nnc(Nc2ccccc2)n1-c1ccccc1 | -75.9
COc1cccc(C(=O)/C=C/Nc2ccc(S(=O)(=O)Nc3nc(C)cc(C)n3)cc2)c1 | -1.4
CCOC(=O)C1CCN(Cc2ccc(F)cc2)CC1 | -11.8
CCOC(=O)C1CCCN(C(=O)Cc2ccc(OC)c(OC)c2)C1 (stereo not drawn) | 17.8
CN(C)S(=O)(=O)c1ccc(N2CCCC2)c(C(=O)NC2CCCCC2)c1 | -16.6
Cc1nnc2c(NC3CCCC3)nc3ccccc3n12 | -37.3
Cc1c(N)c(=O)n(-c2ccccc2)n1C | 21.9

SMILES | hERG current change (%, negative = inhibition) at 10uM [%]
CC(C)[C@@]1(c2ccc(Cl)cc2)ON(c2ccccc2C(F)(F)F)C1=O | 3.85
CCc1c(C)nc2[nH]nc(-c3ccccc3)n2c1=O | 19
CCCCCC(=O)N1CCN(CCN=CC2=C(O)CC(c3ccc(OC)c(OC)c3)CC2=O)CC1 (stereo not drawn) | -78.8
O=C(c1ccncc1)c1ccc(N2CCN(C3CC(=O)N(Cc4cccs4)C3=O)CC2)cc1 (stereo not drawn) | -79.3
O=C(CSc1ccc([N+](=O)[O-])cn1)Nc1nccs1 | 3.54
O=C(C1CCCN(S(=O)(=O)c2cccnc2)C1)N1CCN(c2ccccn2)CC1 (stereo not drawn) | -1.74
Cc1ccc(N=Nc2ccc3ccccc3c2O)cc1 | 16.9
O=C(CSc1ccsc1[N+](=O)[O-])NC1CCCC1 | -0.976
CCN(CC)CCC#CC(O)(c1ccccc1)c1ccccc1 | -45.7
N#Cc1nc(-c2ccccc2F)oc1N1CCCCC1 | 20.5
CCCc1nc(SCC(=O)c2ccc(F)cc2)c2ccccc2n1 | 26.9
Nn1c(Cc2ccccc2)nc2cc(Cl)ccc2c1=O | -3.07
COc1ccc(C(CNC(=O)c2cc3ccccc3o2)N2CCCCC2)cc1 (stereo not drawn) | -51.6
O=C(C1=C(O)C(=O)N(CCN2CCOCC2)C1c1cccc([N+](=O)[O-])c1)c1cccs1 (stereo not drawn) | 7.18
NC(=O)c1nsc(C(=O)N(Cc2ccco2)C(C(=O)NCC2CCCO2)c2ccc(O)cc2)c1N (stereo not drawn) | 12
COc1ccc(S(=O)(=O)N2N=C(C)Oc3ccccc3C2=O)cc1 | -1.52
O=C(Cc1ccccc1Cl)N1CCN(c2ccccn2)CC1 | -15.9
CC(C)(C)NC(=O)C(c1ccncc1)N(C(=O)c1csnn1)c1ccccc1 (stereo not drawn) | -6.21
COc1ccc(NC(=S)NCC2CCCO2)c(OC)c1 (stereo not drawn) | 12.7
COc1cc(OC)cc(C(=O)N[C@H](C(=O)Nc2nnc(C3CC3)s2)C(C)C)c1 | 15
COC(=O)c1ccc(Sc2nnnn2-c2ccccc2)c([N+](=O)[O-])c1 | -15.3
